Results reported in the antibiotic and cytotoxicity screens of Wong et al. (2023).
The other results are listed elsewhere or left out.

test system: HSkMC (human skeletal muscle cells); assay: cytotoxicity call (relative viability < 0.9); settings: 10 µM

| Compound | cytotoxicity call |
| --- | --- |
| Cc1ccc(NC(=O)Nc2cc(C(F)(F)F)ccc2F)cc1Nc1ccc2c(c1)NC(=O)/C2=C\c1ccc[nH]1 | active |
| C[C@@H]1CCCCO[C@@H](CN(C)S(=O)(=O)c2cn(C)cn2)[C@@H](C)CN([C@H](C)CO)C(=O)c2cc(NC(=O)CCCN(C)C)ccc2O1 | inactive |
| C[C@H](CO)N1C[C@H](C)[C@H](CN(C)Cc2ccc(C(=O)Nc3ccccc3N)cc2)OCCCC[C@H](C)Oc2ccc(NC(=O)C3CCCCC3)cc2C1=O | inactive |
| C[C@H]1CCC2=C(CCC[C@@]2(C)C(=O)O)[C@@]1(C)CCc1ccoc1 | inactive |
| C[C@H](CO)N1C[C@H](C)[C@@H](CN(C)Cc2ccc(C(F)(F)F)cc2)Oc2c(NC(=O)CCCCCC(=O)Nc3ccccc3N)cccc2C1=O | inactive |
| CS(=O)(=O)NC[C@@]12COC[C@H]1CN(C(=O)c1cnccn1)C2 | inactive |
| COc1cc(O)c(C(=O)c2ccccc2)cc1S(=O)(=O)O | inactive |
| C[C@@H]1CN([C@H](C)CO)C(=O)c2cc(NS(=O)(=O)c3cccs3)ccc2O[C@H]1CN(C)S(=O)(=O)c1ccccc1 | inactive |
| CN1C(=O)c2cc(NC(=O)C3CCOCC3)ccc2OC[C@@H]2O[C@@H](CC(=O)NCc3ccc4c(c3)OCO4)CC[C@@H]21 | inactive |
| COc1ccc(NC(=O)N(C)C[C@H]2OCCCC[C@@H](C)Oc3ccc(NC(=O)NC4CCCCC4)cc3C(=O)N([C@H](C)CO)C[C@H]2C)cc1 | inactive |

test system: HepG2; assay: cytotoxicity call (relative viability < 0.9); settings: 10 µM

| Compound | cytotoxicity call |
| --- | --- |
| CCCC#Cc1cnc2c(c1)C(=O)N([C@H](C)CO)C[C@@H](C)[C@@H](CN(C)S(=O)(=O)c1cn(C)cn1)O2 | inactive |
| COc1ccc(NC(=O)N(C)C[C@@H]2OCCCC[C@@H](C)Oc3ccc(NC(=O)c4ccccc4)cc3C(=O)N([C@H](C)CO)C[C@@H]2C)cc1 | inactive |
| C[C@H](CO)N1C[C@H](C)[C@H](CN(C)Cc2ccc(Cl)c(Cl)c2)Oc2c(NS(=O)(=O)c3ccc(F)cc3)cccc2C1=O | inactive |
| Cc1cc(N2C(=O)CCC2=O)no1 | inactive |
| CCS(=O)(=O)N1CCN(C[C@@H](C)O)CC1 | inactive |
| C[C@H](CO)N1C[C@H](C)[C@@H](CN(C)Cc2ccccc2)Oc2c(NC(=O)Nc3ccc(C(F)(F)F)cc3)cccc2C1=O | inactive |
| C[C@H](CO)N1C[C@H](C)[C@H](CN(C)Cc2ccc(C(=O)O)cc2)Oc2c(NC(=O)c3cnccn3)cccc2C1=O | inactive |
| C[C@@H]1CN([C@H](C)CO)C(=O)Cc2cc(N(C)C)ccc2O[C@@H]1CN(C)S(=O)(=O)c1cn(C)cn1 | inactive |
| CC(=O)OCC(=O)C1CCC2C3CCC4=CC(=O)CCC4(C)C3CCC12C (stereo not given) | inactive |
| Nc1ccc([C@@H](O)[C@@H](O)CO)cc1 | inactive |
| CCCC(=O)Nc1ccc2c(c1)OC[C@@H](C)N(S(=O)(=O)c1cn(C)cn1)C[C@H](C)[C@H](OC)CN(C)C2=O | inactive |
| C[C@H]1CCCCO[C@@H](CN(C)S(=O)(=O)c2ccc(F)cc2)[C@@H](C)CN([C@@H](C)CO)C(=O)c2cc(NC(=O)C3CCCCC3)ccc2O1 | inactive |
| C/C(=C/CC[C@@H](CO)[C@H]1CC[C@@]2(C)[C@H]3CC[C@@H]4C(C)(C)[C@H](O[C@H]5O[C@@H](CO)[C@@H](O)[C@@H](O)[C@@H]5O)C[C@H](O)[C@@]45C[C@@]35CC[C@@]12C)CO[C@H]1O[C@@H](CO)[C@@H](O)[C@@H](O)[C@@H]1O | inactive |
| C[C@H]1CN([C@@H](C)CO)S(=O)(=O)c2ccc(Br)cc2O[C@H]1CN(C)C(=O)NC1CCCCC1 | inactive |
| O=C(O)[C@@H](O)Cc1ccc(O)c(O)c1 | inactive |
| C[C@@H]1CN([C@H](C)CO)C(=O)c2cccc(NC(=O)C3CCCCC3)c2O[C@@H]1CN(C)Cc1ccc(-c2ccccc2)cc1 | inactive |
| COc1ccc(NC(=O)Nc2ccc3c(c2)C(=O)N([C@H](C)CO)C[C@@H](C)[C@H](CN(C)S(=O)(=O)c2ccccc2)OCCCC[C@H](C)O3)cc1 | active |
| CCS(=O)(=O)N1CC[C@]2(CC1)CN([C@@H](CO)c1c2c2ccc(cc2n1C)OC)C(=O)Nc1c(noc1C)C | inactive |
| CC(=O)OC1CC(C)(C)C(=C=C/C(C)=C/C=C/C(C)=C/C=C/C=C(C)/C=C/C=C(\C)C(=O)CC23OC2(C)CC(O)CC3(C)C)C(C)(O)C1 (stereo not given) | inactive |
| CC(C)(O)CC(=O)NCCn1ccc2ncnc(Nc3ccc(Oc4cccc(C(F)(F)F)c4)c(Cl)c3)c21 | inactive |

| Compound | cytotoxicity call |
| --- | --- |
| Cc1noc(C)c1NC(=O)N(C)C[C@H]1Oc2ccc(NS(=O)(=O)c3cn(C)cn3)cc2C(=O)N([C@@H](C)CO)C[C@@H]1C | inactive |
| COc1ccc(cc1)CN1C[C@]2(CN(C2)C(=O)Cc2ccncc2)c2c([nH]c3cc(ccc23)OC)[C@@H]1CO | inactive |
| Nc1nc(=O)c2ncn(COCCO)c2[nH]1 | inactive |
| C[C@@H]1CCCCO[C@@H](CN(C)S(=O)(=O)c2ccccc2)[C@@H](C)CN([C@@H](C)CO)C(=O)c2cc(NS(=O)(=O)c3ccc(Cl)cc3)ccc2O1 | inactive |
| CC(C)NC(=O)N(C)C[C@@H]1Oc2cc(C#Cc3cccc(F)c3)ccc2S(=O)(=O)N([C@@H](C)CO)C[C@H]1C | inactive |
| CO[C@@H](CN(C)C(=O)c1ccccc1F)[C@H](C)CN([C@@H](C)CO)S(=O)(=O)c1ccc(Cl)cc1 | inactive |
| C[C@@H]1CN([C@H](C)CO)C(=O)c2cc(NC(=O)CCN3CCOCC3)ccc2O[C@H]1CN(C)S(=O)(=O)c1ccc(F)cc1 | inactive |
| C[C@@H]1CCCCO[C@@H](CN(C)Cc2ccc(C(F)(F)F)cc2)[C@H](C)CN([C@H](C)CO)C(=O)c2cc(NS(=O)(=O)c3cccs3)ccc2O1 | active |
| C[C@@H]1CN([C@H](C)CO)C(=O)c2cccc(NS(=O)(=O)c3cccs3)c2O[C@@H]1CN(C)S(C)(=O)=O | inactive |
| CN1CCN(C(=O)C[C@H]2CC[C@H]3[C@@H](COC[C@H](O)CN3C(=O)C3CCCC3)O2)CC1 | inactive |
| Cc1ccc(NC(=O)Nc2cc(C(F)(F)F)ccc2F)cc1Nc1ccc2c(c1)NC(=O)/C2=C\c1ccc[nH]1 | active |
| C[C@@H]1CCCCO[C@@H](CN(C)S(=O)(=O)c2cn(C)cn2)[C@@H](C)CN([C@H](C)CO)C(=O)c2cc(NC(=O)CCCN(C)C)ccc2O1 | inactive |
| C[C@H](CO)N1C[C@H](C)[C@H](CN(C)Cc2ccc(C(=O)Nc3ccccc3N)cc2)OCCCC[C@H](C)Oc2ccc(NC(=O)C3CCCCC3)cc2C1=O | inactive |
| C[C@H]1CCC2=C(CCC[C@@]2(C)C(=O)O)[C@@]1(C)CCc1ccoc1 | inactive |
| C[C@H](CO)N1C[C@H](C)[C@@H](CN(C)Cc2ccc(C(F)(F)F)cc2)Oc2c(NC(=O)CCCCCC(=O)Nc3ccccc3N)cccc2C1=O | inactive |
| CS(=O)(=O)NC[C@@]12COC[C@H]1CN(C(=O)c1cnccn1)C2 | inactive |
| COc1cc(O)c(C(=O)c2ccccc2)cc1S(=O)(=O)O | inactive |
| C[C@@H]1CN([C@H](C)CO)C(=O)c2cc(NS(=O)(=O)c3cccs3)ccc2O[C@H]1CN(C)S(=O)(=O)c1ccccc1 | inactive |
| CN1C(=O)c2cc(NC(=O)C3CCOCC3)ccc2OC[C@@H]2O[C@@H](CC(=O)NCc3ccc4c(c3)OCO4)CC[C@@H]21 | inactive |
| COc1ccc(NC(=O)N(C)C[C@H]2OCCCC[C@@H](C)Oc3ccc(NC(=O)NC4CCCCC4)cc3C(=O)N([C@H](C)CO)C[C@H]2C)cc1 | inactive |
